Test results taken from the supplement of paper PMC12217912.
This is one part of the list. Sequences were assembled here from the parent chain. Inactive controls read about 0.05.

B1: TEV protease; numbered along this chain (parent)
chain: MGESLFKGPRDYNPISSSICHLTNESDGHTTSLYGIGFGPFIITNKHLFRRNNGTLVVQSLHGVFKVKDTTTLQQHLVDGRDMIIIRMPKDFPPFPQKLKFREPQREERICLVTTNFQTKSMSSMVSDTSCTFPSGDGIFWKHWIQTKDGQCGSPLVSTRDGFIVGIHSASNFTNTNNYFTSVPKNFMELLTNQEAQQWVSGWRLNADSVLWGGHKVFMVKPEEPFQPVKEATQL

Variants of: B1
Test: raw area under fraction-flipped curve 0-4 h after induction (AUC4h, not background-subtracted), DNA-recorder readout of cleavage of the substrate (dimensionless); higher = more cleavage of the substrate by the protease variant
Details: temperature: 34 °C; time window: 0-4 h after rhamnose induction
Protocol: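 In vivo DNA recorder in E. coli TOP10(DE3) ΔrhaA at 34 °C. Each TEVp single-site mutant (parent TEVp 0) is paired with a single-site variant of the 7-mer TEVs (canonical ENLYFQ|S). The substrate sits between flexible linkers in a Bxb1-sfGFP-TEVs-SsrA fusion, so cleavage stabilises Bxb1 and speeds flipping of a recombination array, read by NGS. The value is the raw area under the fraction-flipped curve over 0-4 h after rhamnose induction (AUC4h), with ≥20 reads per time point. It is not background-subtracted; inactive controls average about 0.047.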
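Note: Bxb1 expression induced with 0.2% (w/v) L-rhamnose at OD600 near 0.5, cultures sampled hourly, flipped fraction per protease–substrate barcode pair counted by paired-end Illumina sequencing.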

Row | Variant | area with substrate ENLYCQS | area with substrate ENLYDQS | area with substrate ENLYEQS | area with substrate ENLYGQS | area with substrate ENLYHQS | area with substrate ENLYIQS | area with substrate ENLYKQS | area with substrate ENLYMQS | area with substrate ENLYNQS | area with substrate ENLYQQS | area with substrate ENLYRQS | area with substrate ENLYYQS | area with substrate ENLYLQS | area with substrate ENLYPQS | area with substrate ENLYSQS | area with substrate ENLYTQS | area with substrate ENLYVQS | area with substrate ENLYWQS
1 | A207W | 0.0721 | 0.0541 | 0.0481 | 0.0527 | 0.0628 | 0.0895 | 0.0472 | 0.0813 | 0.0442 | 0.0654 | 0.0894 | 0.0587 | – | – | – | – | – | –
2 | N175I | 0.0742 | – | 0.0544 | 0.0681 | 0.0567 | 0.0612 | – | 0.0594 | 0.0593 | 0.0676 | 0.0652 | 0.0665 | 0.0473 | 0.06 | 0.0672 | 0.056 | 0.0571 | 0.0702
3 | N175H | 0.0746 | – | 0.0754 | – | – | – | 0.055 | – | 0.0781 | – | – | 0.0683 | – | – | – | – | 0.0868 | 0.059
4 | H62L | – | 0.0575 | 0.0659 | 0.0476 | – | – | 0.0638 | 0.07 | – | – | – | – | 0.0926 | 0.0803 | 0.068 | – | – | –
5 | D82P | – | 0.0388 | 0.0799 | – | – | – | – | – | 0.0564 | – | – | – | 0.0472 | 0.0488 | – | 0.0686 | – | –
6 | P225G | 0.0951 | 0.051 | 0.0542 | 0.0565 | 0.0618 | 0.0887 | 0.0974 | 0.0745 | 0.0657 | – | 0.0598 | – | – | – | 0.0603 | 0.0718 | 0.117 | 0.0879
7 | P225M | 0.0942 | 0.0374 | 0.0546 | 0.0678 | 0.0636 | 0.106 | 0.0941 | 0.0986 | 0.075 | 0.0671 | 0.0645 | 0.0539 | – | 0.0764 | 0.0671 | 0.0615 | 0.118 | 0.0809
8 | P222K | 0.0776 | 0.0437 | 0.0557 | 0.0666 | 0.0682 | 0.121 | 0.0675 | 0.0628 | 0.0506 | – | 0.0507 | 0.0622 | – | 0.0705 | 0.118 | – | – | –
9 | G2R | – | 0.0665 | 0.0767 | – | – | – | 0.052 | – | – | – | 0.0579 | – | – | 0.0932 | 0.096 | – | – | –
10 | Q74Y | – | 0.0548 | – | 0.0594 | 0.0749 | – | – | 0.0515 | – | 0.0549 | 0.0524 | – | – | 0.0906 | – | 0.152 | 0.0818 | –
11 | G54E | – | 0.0244 | 0.0479 | 0.0712 | 0.0689 | 0.0665 | 0.0514 | 0.0717 | 0.059 | 0.0637 | 0.0582 | – | – | 0.0308 | 0.0735 | 0.0311 | 0.0761 | –
12 | S18H | – | 0.0618 | 0.0578 | 0.052 | 0.0755 | – | 0.0431 | 0.0758 | 0.0761 | 0.0696 | 0.0562 | 0.0559 | – | 0.0744 | 0.0596 | – | 0.12 | 0.0975
13 | R87Y | – | 0.0837 | 0.0613 | 0.0638 | 0.0533 | – | 0.0545 | – | 0.0749 | 0.0644 | 0.0672 | 0.0565 | – | 0.0631 | 0.0605 | 0.0949 | – | 0.0755
14 | R87C | – | 0.0639 | 0.0662 | 0.0407 | 0.0565 | 0.105 | – | – | – | – | 0.0698 | – | – | 0.082 | 0.0841 | – | – | 0.0959
15 | L61P | – | 0.0663 | 0.0668 | – | 0.0807 | – | 0.0934 | 0.0744 | 0.0206 | 0.0394 | 0.0516 | 0.0659 | 0.0637 | 0.0678 | – | 0.102 | – | 0.0756
